Data reported in the supplement of paper PMC12217912.
The other results are listed elsewhere or left out. Sequences were assembled here from the parent chain. Values near 0.05 are background.

B1: TEV protease; numbered along this chain (parent)
chain: MGESLFKGPRDYNPISSSICHLTNESDGHTTSLYGIGFGPFIITNKHLFRRNNGTLVVQSLHGVFKVKDTTTLQQHLVDGRDMIIIRMPKDFPPFPQKLKFREPQREERICLVTTNFQTKSMSSMVSDTSCTFPSGDGIFWKHWIQTKDGQCGSPLVSTRDGFIVGIHSASNFTNTNNYFTSVPKNFMELLTNQEAQQWVSGWRLNADSVLWGGHKVFMVKPEEPFQPVKEATQL

Variants of: B1
Test: raw area under fraction-flipped curve 0-4 h after induction (AUC4h, not background-subtracted), DNA-recorder readout of cleavage of the substrate (dimensionless); higher = more cleavage of the substrate by the protease variant
Settings: temperature: 34 °C; time window: 0-4 h after rhamnose induction
Description: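 In vivo DNA recorder in E. coli TOP10(DE3) ΔrhaA at 34 °C. Each TEVp single-site mutant (parent TEVp 0) is paired with a single-site variant of the 7-mer TEVs (canonical ENLYFQ|S). The substrate sits between flexible linkers in a Bxb1-sfGFP-TEVs-SsrA fusion, so cleavage stabilises Bxb1 and speeds flipping of a recombination array, read by NGS. The value is the raw area under the fraction-flipped curve over 0-4 h after rhamnose induction (AUC4h), with ≥20 reads per time point. It is not background-subtracted; inactive controls average about 0.047.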
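Further: Bxb1 expression induced with 0.2% (w/v) L-rhamnose at OD600 near 0.5, cultures sampled hourly, flipped fraction per protease–substrate barcode pair counted by paired-end Illumina sequencing.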

Variant	area with substrate EALYFQS	area with substrate ECLYFQS	area with substrate EELYFQS	area with substrate EFLYFQS	area with substrate EHLYFQS	area with substrate EILYFQS	area with substrate EKLYFQS	area with substrate EMLYFQS	area with substrate EQLYFQS	area with substrate ERLYFQS	area with substrate ESLYFQS	area with substrate ETLYFQS	area with substrate EVLYFQS	area with substrate EWLYFQS	area with substrate EGLYFQS	area with substrate EPLYFQS	area with substrate EYLYFQS	area with substrate ELLYFQS	area with substrate EDLYFQS
MGESLFKGPRDYNPISSSICHLTNESDGHTTSLYGIGFGPAIITNKHLFRRNNGTLVVQSLHGVFKVKDTTTLQQHLVDGRDMIIIRMPKDFPPFPQKLKFREPQREERICLVTTNFQTKSMSSMVSDTSCTFPSGDGIFWKHWIQTKDGQCGSPLVSTRDGFIVGIHSASNFTNTNNYFTSVPKNFMELLTNQEAQQWVSGWRLNADSVLWGGHKVFMVKPEEPFQPVKEATQL [F41A]	0.0993	0.082	0.0565	0.0894	0.0829	0.0811	0.0838	0.0921	0.0802	0.0667	0.0934	0.103	0.095	0.0921	–	–	–	–	–
MGESLFKGPRDYNPISSSICHLTNESDGHTTSLYGIGFGPQIITNKHLFRRNNGTLVVQSLHGVFKVKDTTTLQQHLVDGRDMIIIRMPKDFPPFPQKLKFREPQREERICLVTTNFQTKSMSSMVSDTSCTFPSGDGIFWKHWIQTKDGQCGSPLVSTRDGFIVGIHSASNFTNTNNYFTSVPKNFMELLTNQEAQQWVSGWRLNADSVLWGGHKVFMVKPEEPFQPVKEATQL [F41Q]	0.0907	0.0766	0.0822	–	0.0978	0.0572	0.0813	0.0515	0.0858	0.103	0.0638	–	0.0841	–	0.0939	0.0981	0.0688	–	–
MGESLFKGPRDYNPISSSICHLTNESDGHTTSLYGIGFGPPIITNKHLFRRNNGTLVVQSLHGVFKVKDTTTLQQHLVDGRDMIIIRMPKDFPPFPQKLKFREPQREERICLVTTNFQTKSMSSMVSDTSCTFPSGDGIFWKHWIQTKDGQCGSPLVSTRDGFIVGIHSASNFTNTNNYFTSVPKNFMELLTNQEAQQWVSGWRLNADSVLWGGHKVFMVKPEEPFQPVKEATQL [F41P]	0.0438	0.047	0.0596	0.0516	–	0.0473	0.0607	0.0569	0.0437	0.0535	0.0527	–	0.0419	0.0537	0.048	0.0522	0.0275	0.0534	–
MGESLFKGPRDYNPISSSICHLTNESDGHTTSLYGIGFGPGIITNKHLFRRNNGTLVVQSLHGVFKVKDTTTLQQHLVDGRDMIIIRMPKDFPPFPQKLKFREPQREERICLVTTNFQTKSMSSMVSDTSCTFPSGDGIFWKHWIQTKDGQCGSPLVSTRDGFIVGIHSASNFTNTNNYFTSVPKNFMELLTNQEAQQWVSGWRLNADSVLWGGHKVFMVKPEEPFQPVKEATQL [F41G]	0.0724	–	0.0938	0.0679	–	0.0736	0.0736	0.0778	0.0777	0.0707	0.0609	–	0.0742	0.0614	0.0742	0.0877	0.0772	0.0678	0.0851
MGESLFKGPRDYNPISSSICHLTNESDGHTTSLYGIGFGQFIITNKHLFRRNNGTLVVQSLHGVFKVKDTTTLQQHLVDGRDMIIIRMPKDFPPFPQKLKFREPQREERICLVTTNFQTKSMSSMVSDTSCTFPSGDGIFWKHWIQTKDGQCGSPLVSTRDGFIVGIHSASNFTNTNNYFTSVPKNFMELLTNQEAQQWVSGWRLNADSVLWGGHKVFMVKPEEPFQPVKEATQL [P40Q]	0.0753	0.111	0.144	–	0.105	0.124	0.108	0.122	0.135	0.108	0.118	0.0724	0.104	–	0.0968	0.123	–	0.128	–
MGESLFKGPRDYNPISSSICHLTNESDGHTTSLYGIGFGPFIHTNKHLFRRNNGTLVVQSLHGVFKVKDTTTLQQHLVDGRDMIIIRMPKDFPPFPQKLKFREPQREERICLVTTNFQTKSMSSMVSDTSCTFPSGDGIFWKHWIQTKDGQCGSPLVSTRDGFIVGIHSASNFTNTNNYFTSVPKNFMELLTNQEAQQWVSGWRLNADSVLWGGHKVFMVKPEEPFQPVKEATQL [I43H]	0.0436	–	–	–	0.044	0.0445	0.0499	0.0481	–	0.0515	0.0516	0.0595	–	–	–	0.0471	0.041	–	0.0409
MGESLFKGPRDYNPISSSICHLTNESDGHTTSLYGIGFGPFIDTNKHLFRRNNGTLVVQSLHGVFKVKDTTTLQQHLVDGRDMIIIRMPKDFPPFPQKLKFREPQREERICLVTTNFQTKSMSSMVSDTSCTFPSGDGIFWKHWIQTKDGQCGSPLVSTRDGFIVGIHSASNFTNTNNYFTSVPKNFMELLTNQEAQQWVSGWRLNADSVLWGGHKVFMVKPEEPFQPVKEATQL [I43D]	0.0364	0.0406	0.0449	0.0461	0.0326	0.0388	0.0342	0.0439	0.0412	0.0862	0.0462	0.0302	0.0495	0.0531	0.0501	–	0.0501	0.0318	–
MGESLFKGPRDYNPISSSICHLTNESDGHTTSLYGIGFGPFIIINKHLFRRNNGTLVVQSLHGVFKVKDTTTLQQHLVDGRDMIIIRMPKDFPPFPQKLKFREPQREERICLVTTNFQTKSMSSMVSDTSCTFPSGDGIFWKHWIQTKDGQCGSPLVSTRDGFIVGIHSASNFTNTNNYFTSVPKNFMELLTNQEAQQWVSGWRLNADSVLWGGHKVFMVKPEEPFQPVKEATQL [T44I]	0.0384	0.0383	0.0624	0.0573	–	0.0444	–	0.0545	0.0731	0.0578	0.0555	0.0672	–	0.0593	0.0582	–	–	0.0542	–
